Hit rate of the full screen: of about 91,000 compounds, about 130 (0.14%) were called active. Inconclusive means that the source gave no clear call. Such entries were picked first, then a sample of the others. The call rests on the fitted dose curve; in most records, active means well fitted inhibition curve with a large enough effect; inconclusive means small, poorly fitted or top-dose-only effect; inactive means flat fitted curve, though single readings scatter. Potencies beside an inconclusive call are fits to weak or partial responses and may not hold up.
Test system: Uracil-DNA glycosylase
Assay: Primary qHTS assay for inhibitors of Activation Induced Cytidine Deaminase (AID): UDG Counterscreen signal; further: nearly all actives have a fitted effect of over 65% in size
Settings: FRET deamination/UDG coupled assay, UDG read, 4 h; series mostly up to 115 µM
Potency means the concentration at half of the fitted maximal effect; tags describe the fitted curve by direction and shape.

Row | SMILES | Potency
1 | CCNC(=O)Cc1ccc(NC(=O)N2CCCCc3ccccc32)cc1 | inconclusive: 89.1 µM [inhibitor, single point]
2 | CCc1ccc(C2NC(=O)NC(CN(CC)Cc3ccccc3)=C2C(=O)OC)cc1 (configuration not stated) | inconclusive: 79.4 µM [inhibitor, single point]
3 | Cc1nc2ccccc2c(=O)n1-c1ccc(NC(=O)C(F)(F)F)cc1 | inconclusive: 89.1 µM [inhibitor, partial curve, poor fit]
4 | C=Cc1ccc(Cn2c(C(=O)O)c(CNCc3cc(Br)ccc3OC)c3ccc(C)cc32)cc1 | inconclusive: 39.8 µM [inhibitor, single point]
5 | CC(C)Sc1ncc(Cl)c(C(=O)N(Cc2ccc(F)cc2)C2CCS(=O)(=O)C2)n1 (configuration not stated) | inconclusive: 89.1 µM [inhibitor, partial curve, poor fit]
6 | CCN1c2cc(C)ccc2-n2cccc2C12CCN(C(=O)Nc1cc(OC)c(OC)c(OC)c1)CC2 | active: 89.1 µM
7 | CCCOc1ccc(CN(C(=O)c2nc(SC(C)C)ncc2Cl)C2CCS(=O)(=O)C2)cc1 (configuration not stated) | inconclusive: 79.4 µM [inhibitor, partial curve, poor fit]
8 | Cc1ccc(OCc2ccc(-c3nc(C#N)c(N4CCC(C(N)=O)CC4)o3)o2)cc1 | inactive
9 | CC1(CBr)C2CCC1(C)C1(OCCO1)C21OCCO1 (configuration not stated) | inactive
10 | CCc1c(C)sc(NC(=O)C2c3ccccc3Oc3ccccc32)c1C(=O)OC(C)C | inconclusive: 89.1 µM [inhibitor, partial curve, poor fit]
11 | COc1ccc(OC)c(C2C(C(=O)Nc3ccccc3OC)=C(C)Nc3c(C(=O)Nc4ccc(F)cc4)cnn32)c1 (configuration not stated) | inactive
12 | Cc1cccc(-c2nc(CSCC(=O)N3CCN(c4ccccc4)CC3)c(C)o2)c1 | inconclusive: 89.1 µM [inhibitor, single point]
13 | COc1ccccc1NC(=O)C1CCN(c2nccnc2Sc2ccc(C)cc2)CC1 | inconclusive: 89.1 µM [inhibitor, single point]
14 | FC(F)(F)c1cccc(N/N=C/c2ccc(Cl)cc2Cl)c1 | inactive
15 | CC(=O)Nc1nnc(SCc2cc(=O)c3cccc(C)c3[nH]2)s1 | inconclusive: 31.6 µM [inhibitor, single point]
16 | CCOC(=O)c1cccc(NC(c2nnc(-c3ccccc3)o2)c2ccccc2F)c1 (configuration not stated) | inconclusive: 70.8 µM [inhibitor, single point]
17 | CCc1ccc(NC(=O)Cn2c(=O)oc3cc(S(=O)(=O)NCc4ccccc4)ccc32)cc1 | inconclusive: 89.1 µM [inhibitor, partial curve, poor fit]
18 | Cc1ccc(NC(c2nnc(-c3ccccc3)o2)c2ccccc2F)c([N+](=O)[O-])c1 (configuration not stated) | inconclusive: 89.1 µM [inhibitor, partial curve, poor fit]
19 | Clc1ccccc1-c1nnc(SCc2nc(-c3ccccc3)no2)n1-c1ccccc1 | active: 79.4 µM
20 | NC(N)=NCc1ccc(F)cc1 | inactive
21 | CN(C)C(=O)c1ccc2oc(CN3CCN(C(=O)Nc4ccc(F)cc4F)CC3)nc2c1 | inactive
22 | C#CCNC(=O)CCSCc1csc(C)n1 | inactive
23 | CC(C)c1ccc(C2=NC(c3ccncc3)=Nc3ccc(F)cc3N2)cc1 | inconclusive: 20 µM [inhibitor, partial curve, poor fit]

Row | SMILES | Potency
24 | CCC1CCc2c(sc(NC(=O)C3c4ccccc4Oc4ccccc43)c2C(=O)OC)C1 (configuration not stated) | inconclusive: 3.16 µM [inhibitor, full curve, poor fit]
25 | O=C(/C=C/c1ccco1)Oc1ccc(Sc2ccc(OC(=O)/C=C/c3ccco3)cc2)cc1 | inactive
26 | COc1ccc(-c2cc(C(=O)Oc3ccc(C#N)cc3)no2)cc1 | inconclusive: 89.1 µM [inhibitor, single point]
27 | CCCc1cc(=O)[nH]c(SCc2nc(-c3ccccc3)no2)n1 | inconclusive: 89.1 µM [inhibitor, single point]
28 | COc1cc(Br)cc2cc(S(=O)(=O)c3ccccc3)c(=O)oc12 | inconclusive: 89.1 µM [inhibitor, single point]
29 | O=C(O)CCC(=O)N1N=C(c2ccsc2)CC1c1ccc(Br)cc1 (configuration not stated) | inactive
30 | Cc1ccccc1OCCSc1nc2ccc(NC(=O)c3ccco3)cc2s1 | inconclusive: 22.4 µM [inhibitor, partial curve, poor fit]
31 | O=C(CSc1nc(=O)n(Cc2ccccn2)c2c1CCC2)Nc1cccc(Cl)c1 | inconclusive: 89.1 µM [inhibitor, single point]
32 | Cc1oc(-c2cccc(Cl)c2)nc1CN1CCC(C(=O)NCc2ccc(F)cc2)CC1 | inconclusive: 79.4 µM [inhibitor, partial curve, poor fit]
33 | CC(C)(C)C(=O)Nc1ccc2nc(SCc3ccccc3)sc2c1 | inconclusive: 89.1 µM [inhibitor, single point]
34 | CCC(C)NC(=O)Nc1sc(C)c(C)c1C#N (configuration not stated) | inactive
35 | CC(=O)c1ccc(NC(=O)CC2Sc3ccccc3NC2=O)cc1 (configuration not stated) | inconclusive: 100 µM [inhibitor, single point]
36 | O=C(C1CC1)N(Cc1ccc2c(c1)CN(S(=O)(=O)c1cc(F)cc(F)c1)CCO2)c1ccccc1 | inactive
37 | Cc1cccc(C)c1NC(=O)c1cc(S(=O)(=O)N2CCCc3ccccc32)ccc1F | active: 89.1 µM
38 | CCC(C)Sc1c(C)cnc2c1c(=O)n(C)c(=O)n2C (configuration not stated) | inconclusive: 89.1 µM [inhibitor, single point]
39 | Cc1cc2[nH]c(C(=O)O)cc2c2ccccc12 | inactive
40 | CCCOc1ccc(CNC(=O)Cn2cc3c(n2)-c2c(oc(C(=O)N4CCOCC4)c2C)CC3)cc1 | inconclusive: 28.2 µM [inhibitor, full curve]
41 | Cn1c(=O)c2c(-c3ccccc3Cl)n(Cc3ccc(Cl)cc3)cc2n(C)c1=O | inconclusive: 89.1 µM [inhibitor, single point]
42 | CCOc1ccc(CNCc2c(C(=O)O)n(Cc3ccc(OC)cc3)c3ccccc23)cc1 | inactive
43 | CC(C)c1nc2ccc(C(=O)NCCCN3CCN(c4ccc(F)cc4)CC3)cc2o1 | inconclusive: 89.1 µM [inhibitor, single point]
44 | O=C(CSc1cccc2cccnc12)NNC(=O)C(c1ccccc1)c1ccccc1 | inactive
45 | CCOc1ccc(-n2c(Cc3ccccc3)nnc2SCc2nc(-c3cccs3)no2)cc1 | inconclusive: 56.2 µM [inhibitor, partial curve, poor fit]
46 | O=C(COc1cccc(Cl)c1)NC1CCCN(c2ncccn2)C1 (configuration not stated) | inactive

Row | SMILES | Potency
47 | c1ccc(CNCc2ccc(OCc3ccccc3)cc2)cc1 | inactive
48 | CCOc1ccc(-n2c(=O)c3c(C)c(C)sc3n(CC(=O)Nc3ccc(CC)cc3)c2=O)cc1 | inconclusive: 35.5 µM [inhibitor, single point]
49 | COc1ccc(Br)cc1CNC(=O)c1cnc2sc(N3CCCCCC3)nn2c1=O | inactive
50 | O=S(=O)(c1cccnc1)N1CCn2cccc2C1c1ccccc1F (configuration not stated) | inconclusive: 89.1 µM [inhibitor, single point]
51 | COc1ccc(NC(=O)N2CCN(S(=O)(=O)c3ccc4c(ccn4C)c3)CC2)cc1OC | inconclusive: 100 µM [inhibitor, partial curve, poor fit]
52 | Cc1ccc(CNc2ncnc3c2c(-c2ccccc2)cn3-c2ccccc2)cc1 | inconclusive: 79.4 µM [inhibitor, partial curve, poor fit]
53 | COc1ccc(OC)c(CCNC(=O)Cn2ccc3cc(S(=O)(=O)N4CCCCC4)ccc32)c1 | inconclusive: 35.5 µM [inhibitor, single point]
54 | O=C(/C(Br)=C\Nc1ccc(F)cc1)C(F)(F)F | inactive
55 | CC(=O)Nc1cc(C)c(I)cc1C | inactive
56 | CCOC(=O)c1ccc(NC(=O)c2nc(SC(C)C)ncc2Cl)cc1 | inconclusive: 31.6 µM [inhibitor, partial curve, poor fit]
57 | CCCSc1n[nH]c2nc3c(c(=O)n12)C(C)(CC)Cc1ccccc1-3 (configuration not stated) | inactive
58 | CCC1CCc2nc3sc(C(=O)Nc4ccc(C)cc4C)c(N)c3cc2C1 (configuration not stated) | inactive
59 | Cc1cccc(-c2nc(CN3CCCC(C(=O)NCc4ccc(Cl)cc4)C3)c(C)o2)c1 (configuration not stated) | inconclusive: 63.1 µM [inhibitor, partial curve, poor fit]
60 | Oc1ccc2ccccc2c1C=Nc1ccc(F)c(F)c1F | inconclusive: 28.2 µM [inhibitor, full curve, poor fit]
61 | COc1ccc(OC)c(NC(=O)Cn2c(=O)n(-c3cccc(C)c3)c(=O)c3c2c2cc(C)ccc2n3C)c1 | inconclusive: 89.1 µM [inhibitor, single point]
62 | COc1ccc(-n2c(C)nnc2SCc2nc(-c3ccc(OC)c(OC)c3)no2)cc1 | inconclusive: 56.2 µM [inhibitor, partial curve, poor fit]
63 | COc1ccc(C)cc1NC(=O)Cn1c(=O)oc2cc(S(=O)(=O)N3CCCCC3)ccc21 | inconclusive: 100 µM [inhibitor, single point]
64 | CCc1ccc(N(CC)C(=O)CCn2cnc3onc(-c4ccc(F)cc4)c3c2=O)cc1 | active: 89.1 µM
65 | Cc1nn(C)c2c1c(-c1ccccc1)cc(=O)n2Cc1ccccc1C#N | inconclusive: 56.2 µM [inhibitor, partial curve, poor fit]
66 | C/C(=N\NC(=O)c1cccc2ccccc12)c1ccc(C)s1 | inactive
67 | COC(=O)c1ccccc1NC(=O)c1ccc(-c2nc(COc3ccccc3)c(C)o2)cc1 | inconclusive: 100 µM [inhibitor, partial curve, poor fit]
